Laboratory results taken from PubChem BioAssay AID485344 (National Center for Advancing Translational Sciences (NCATS), 2010).
In all, about 340,000 compounds went through this assay and about 6,900 (2%) were called active. No stated cut-off is given here; in the data, active means inhibition above about 30%; inactive means below that, where a call was filed. Only a part is listed here, and it is no random draw. The source gives no active or inactive call for entries shown without one. Some compounds were tested as several samples or in several runs, with calls that do not always agree.

Molecular target: D(2) dopamine receptor (Homo sapiens) (UniProt P14416)
UniProt P14416, sequence (P14416 whole entry, looked up): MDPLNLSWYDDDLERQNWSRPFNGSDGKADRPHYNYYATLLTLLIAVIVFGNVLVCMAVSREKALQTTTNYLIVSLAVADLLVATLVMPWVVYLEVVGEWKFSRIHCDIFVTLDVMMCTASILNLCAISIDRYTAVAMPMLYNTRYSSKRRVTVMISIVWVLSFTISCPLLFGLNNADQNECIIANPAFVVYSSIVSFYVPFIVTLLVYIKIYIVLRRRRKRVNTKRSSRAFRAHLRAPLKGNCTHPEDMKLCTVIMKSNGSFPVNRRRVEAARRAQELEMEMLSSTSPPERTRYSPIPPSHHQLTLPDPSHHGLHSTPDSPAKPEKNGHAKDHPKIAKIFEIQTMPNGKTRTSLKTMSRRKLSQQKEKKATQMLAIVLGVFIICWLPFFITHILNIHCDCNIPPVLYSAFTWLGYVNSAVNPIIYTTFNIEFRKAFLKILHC
Test: HTS Assay for Allosteric Antagonists of the Human D2 Dopamine Receptor: Primary Screen for Antagonists; further: 0% is about no effect
Details: HEK293 TREx D2 cells, calcium flux, dopamine EC80; at 10 µM; stronger effect = higher value
Procedure, shortened: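 Tetracycline-induced HEK293 T-REx cells expressing D2 force-coupled to calcium signalling were dye-loaded, exposed to compound for 180 s, then challenged with an EC80 of dopamine; calcium flux was followed kinetically for a further 180 s.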

SMILES | inhibition
O=C(NCc1ccc(Cl)cc1)C1CCCN(C(=O)c2cnn(-c3ccc(F)cc3)c2-n2cccc2)C1 (stereo not drawn) | 1.35%
Cc1ccc(Nc2c(-c3cc(Br)ccc3F)nc3cc(C)ccn23)cc1 | 0.0339%
CCN(CC)S(=O)(=O)c1cc(-c2nnc(Nc3ccc(OC)c(C(N)=O)c3)c3ccccc23)ccc1C | -10.5%
Cc1ccc(NC(=O)c2cccc(N3CCCS3(=O)=O)c2)cc1 | -18.5%
CCOc1ccc(NC(=O)N2CCC(CN3CCc4ccccc4C3)CC2)cc1 | 8.12%
COc1ccccc1NC(=O)Cn1c(=O)n(-c2ccc(C)cc2)c(=O)c2ccc(C(=O)NCc3ccco3)cc21 | -7.18%
CCOCCCNC(=O)c1ccc(NC(=O)N2CCCCc3ccccc32)cc1 | 15%
Cc1c(NC(=O)c2ccc(Cl)cc2)cc(C(C)C)c(O)c1S(=O)(=O)c1ccc(Cl)cc1 | -2.53%
COc1ccccc1N1CCN(c2ccc(=O)n(CC(=O)Nc3ccc(F)c(F)c3)n2)CC1 | -13.6%
CCc1cccc(NC(=O)CCc2c(C)nc3c(c2C)c(=O)n(C)c(=O)n3C)c1 | 5.87%
O=C(NCc1cccnc1)c1nn(-c2ccccc2F)nc1CO | -1.13%
Cc1ccc(CNC(=O)CCSCc2ccccc2F)cc1 | 18.6%
Cc1cc(C)c2oc(C(=O)Nc3sc4c(c3C(=O)NCc3ccco3)CCCC4)cc(=O)c2c1 | -15%
Cc1ccc(N(C(=O)COc2ccccc2C)S(=O)(=O)c2ccc(Cl)cc2)cc1 | -8.85%
CC(C)N(Cc1ccccc1)c1ncnc2c1nnn2C | 17.1%
COc1ccc(-c2cc(C(F)F)n3ncc(C(=O)N4CCN5CCCC5C4)c3n2)cc1 (stereo not drawn) | active: 51.8%
CCOc1ccc(C(c2c(O)cc(C)n(CCOC)c2=O)N2CCN(c3ccccc3F)CC2)cc1 (stereo not drawn) | -16.9%
Nc1cc(C(=O)OCC(=O)Nc2ccc(N3CCOCC3)cc2)ccc1Cl | active: 48%
CCCCC1CCC(C(=O)Nc2ccccc2N2CCOCC2)CC1 (stereo not drawn) | active: 33.1%
COCCCNC(=O)C(=O)NCC(c1ccc2c(c1)OCO2)N1CCOCC1 (stereo not drawn) | 27.1%
COc1ccc(NC(=O)C2=C(C)Nc3nc(CCCO)nn3C2c2ccc(O)cc2)cc1 (stereo not drawn) | 8.49%
Cc1ccc(C)c(S(=O)(=O)c2nnn3c2nc(N2CCOCC2)c2sccc23)c1 | -14.4%
COC(=O)c1sccc1S(=O)(=O)N1CCN(c2ccccc2OC)CC1 | 9.45%
O=C(Nc1ccc2nc(SCCOc3ccccc3Cl)sc2c1)c1cccs1 | -0.329%
Cc1ccc(-c2cc(C(=O)O)c3cc(Br)ccc3n2)s1 | active: 31%

SMILES | inhibition
Cc1c(/C(Cc2ccccc2)=N/O)c2ccccc2n1C | active: 36.9%
COc1ccc(N2CC(C(=O)Nc3ccc(NC(C)=O)cc3)CC2=O)cc1 (stereo not drawn) | 7.09%
COc1ccccc1-c1nnc(SCCOc2ccccc2C)o1 | -5.06%
CCc1cccc(CC)c1NS(=O)(=O)c1ccc2c(c1)CCN2C(=O)C1CC1 | 2.33%
CC(C)c1ccc(S(=O)(=O)c2cnc(SCC(=O)Nc3cccc(C(F)(F)F)c3)nc2N)cc1 | 6.23%
CCOC(=O)c1cc(-c2ccc(OC)c(S(=O)(=O)Nc3ccc(OC)cc3OC)c2)on1 | 2.02%
Cc1ccc(CNC(=O)c2nnc(Cc3cccc(F)c3)o2)cc1 | -15.1%
COc1ccc(-c2nc3ccccc3n2Cc2ccc(C(C)C)cc2)cc1 | 10%
Cc1ccccc1NC(=O)C1CCN(C(=O)c2ccc(F)cc2)CC1 | -7.05%
CCOc1ccc(NC(=O)Cn2cc(C(=O)c3ccc(F)cc3)c(=O)c3cc4c(cc32)OCO4)cc1 | -4.36%
CCOC(=O)N1CCC(NC(=O)c2cnn(-c3ccc(C)cc3)c2-n2cccc2)CC1 | -9%
Cc1cccc(-c2nc3cc(NC(=O)c4ccc(OCC(C)C)cc4)ccc3o2)c1 | 0.541%
COc1ccc(NC(=O)c2cnc(N3CCOCC3)c3ccccc23)cc1OC | 2.05%
Cc1ccn2c(c1)nc(=O)c1cc(S(=O)(=O)N3CCCCC3)ccc12 | -7.76%
COc1cccc(CCNC(=O)c2ccc(Cn3c(SCc4ccccc4)nc4cccnc43)cc2)c1 | -4.2%
CCOc1ccc(NC(=O)NC(C)c2c(-n3cccc3)sc3c2CCN(CC)C3)cc1 (stereo not drawn) | -21.2%
O=C(Nc1ccc2nc(SCCOc3ccccc3)sc2c1)c1ccco1 | -22.1%
Cc1c(Cl)cccc1NC(=O)c1cc(-c2cccc(Cl)c2)on1 | -11.9%
CC(C)C(=O)Nc1ccccc1C(=O)OCc1cc(=O)n2nc(C3CC3)sc2n1 | 10.8%
O=C(Nc1cccc(Br)c1)Nc1nc2c(s1)CCCCCC2 | 15.6%
O=C(CN1C(=O)c2cccnc2Oc2ccc(Cl)cc21)NCCCN1CCCCC1 | -13.9%
COc1cc2c(C(=O)N3CCN(c4cccc(Cl)c4)CC3)cn(C)c(=O)c2cc1OC | -6.32%
Cc1nn2c(=O)cc(COC(=O)c3ccc(NC(=O)CCc4ccccc4)cc3)nc2s1 | -8.27%
Cc1cccc(OCCn2c(SCC(N)=O)nc3ccccc32)c1 | 2.43%
COc1ccc(CCNC(=O)C(=O)NCC(c2ccco2)S(=O)(=O)c2cccs2)cc1 (stereo not drawn) | 1.35%

SMILES | inhibition
CCC(Sc1nc2cc3c(cc2c(=O)n1CCCCCC(=O)NCc1ccc2c(c1)OCO2)OCO3)C(=O)NCCCOC (stereo not drawn) | 2.33%
CC1Cc2cc(S(=O)(=O)CCC(=O)Nc3cccc(F)c3)ccc2N1C(=O)C1CC1 (stereo not drawn) | 8.39%
CC(=O)Nc1ccc(S(=O)(=O)N2CCC(N3CCN(Cc4ccc(C)cc4)C(=O)C3=O)CC2)cc1 | 6.37%
Cc1cc(C)cc(NS(=O)(=O)c2cc3[nH]c(=O)c(=O)[nH]c3cc2C)c1 | -14.4%
O=C(Cn1nnc(-c2ccc(C(F)(F)F)cc2)n1)NCCc1ccccc1 | 4.86%
CCOC(=O)C1CCC(CN(Cc2ccc(OC)cc2)S(=O)(=O)c2ccc(C)cc2)CC1 (stereo not drawn) | 3.6%
CCc1ccc(CN(Cc2ccco2)c2cnc(S(C)(=O)=O)nc2C(=O)Nc2ccc(C)c(Cl)c2)cc1 | 9.94%
CCCC(=O)Oc1c(Sc2ccc(C)cc2)c(C)nn1-c1ccccc1 | -7.31%
COc1cc(OC)c(C(=O)NCc2nc(-c3ccccc3)no2)cc1OC | -15.4%
O=C(Nc1cc(Cl)cc(Cl)c1)c1ccc(F)c(S(=O)(=O)N2CCCC2)c1 | 4.08%
NC(N)=Nc1cc2ccccc2c2ccccc12 | active: 37.5%
Cc1ccc(NC(=O)CN(C)S(=O)(=O)c2cccc3cccnc23)c(C)c1 | 22.1%
COC(=O)c1ccccc1NC(=O)c1cc2ccccn2n1 | 7.43%
O=C(Cn1ncn2c(cc3cc(F)ccc32)c1=O)NC1CCCCC1 | 6.21%
Cc1oc2c(cc(NS(=O)(=O)c3ccc(Br)cc3)c3ccccc32)c1C(=O)OCc1ccccc1 | -13.8%
CN(C)c1ccc(C(=O)Nc2sc(Nc3ccccc3)nc2C(N)=O)cc1 | 8.94%
OC(COc1ccc(Cl)cc1)CN1CCN(c2ccccc2)CC1 (stereo not drawn) | active: 71.4%
COc1ccc(Cn2c(CCC(=O)Nc3ccc(Br)c(C)c3)nc3cccnc32)cc1 | 7.07%
CCCCCn1c(=O)[nH]c2cc(C(=O)N3CCN(c4ccc(OC)cc4)CC3)ccc2c1=O | -8.06%
Cc1ccc(CN2CCC(CNC(=O)Nc3ccccc3F)CC2)cc1 | -14.5%
COc1ccc(C)cc1Nc1nc2c(S(=O)(=O)c3cc(C)ccc3C)nnn2c2ccsc12 | -5.01%
Cc1ccc(S(=O)(=O)N(C)C)cc1NC(=S)N(CCC#N)Cc1cccnc1 | active: 43.5%
O=C(COc1ccc(Cl)cc1)NCCc1csc(-c2ccc(C(F)(F)F)cc2)n1 | -10.1%
COCCNc1nc2c(S(=O)(=O)c3ccccc3)nnn2c2ccc(Cl)cc12 | -7.83%
COc1cc2c(cc1NC(=O)COc1cc(C)cc(C)c1)oc1ccccc12 | 13.2%

SMILES | inhibition
CCn1c(CNc2ccc(Cl)cc2)nnc1SCCN1CCCCC1 | active: 50%
COc1ccc(Cn2c(SCc3ccc(C(=O)NC4CCCCC4)cc3)nc3cccnc32)cc1 | 7.68%
COc1ccc(Nc2ncnc3scc(-c4ccc(F)cc4)c23)cc1 | -18.4%
CC(=O)Nc1ccc2nc(SCCOc3ccc(C)cc3)sc2c1 | -1.46%
COc1ccc(NC(=O)c2sc3nc(C)c(C(=O)Nc4ccc(C)cc4C)c(-c4sccc4C)c3c2N)cc1 | -11.3%
COc1ccccc1-c1cc(C(F)(F)F)nc(S(=O)(=O)CCCC(=O)Nc2ccccc2F)n1 | 9%
CCOc1ccc(C2c3[nH]c4ccccc4c3CCN2C(=O)CSc2ccccc2)cc1 (stereo not drawn) | 4.04%
Fc1ccccc1N1CCN(CC2CCCCC2)CC1 | active: 88.8%
CCOC(=O)c1cc(NC(=O)c2ccc(C)cc2)c(=O)n2c1oc1ccccc12 | -20.1%
COCCCNC(=O)Cn1c(=O)n(-c2ccccc2)c(=O)c2c1c1cc(OC)ccc1n2C | 15.5%
COc1ccc(CN2C(=O)N(c3cccc(C)c3)C(=O)C2CC(=O)Nc2ccc(F)cc2)cc1OC (stereo not drawn) | -17.8%
COc1cccc(C(=O)Nc2nc3c(s2)CCCC3)c1 | 21.2%
CN(Cc1ccccc1)C(=O)C(=O)Nc1ccc2nc3n(c(=O)c2c1)CCCCC3 | 2.45%
CNc1ccc(-c2nc(-c3ccccn3)no2)cc1[N+](=O)[O-] | -2.08%
Cc1ccc(CNC(=O)c2cc3cc(C)ccc3n2C)cc1 | -5.7%
COc1ccc(-n2c(=O)c3ccc(C(=O)NCc4ccc(C)cc4)cc3n(CC(=O)Nc3cccc(F)c3)c2=O)cc1 | 2.21%
Cc1nonc1NC(=O)CSc1nc(C2CCCCC2)nc2ccccc12 | active: 53.5%
CCCNC(=O)C1CCC(Cn2c(=O)c3sccc3n(CC(=O)N(CC)CC)c2=O)CC1 (stereo not drawn) | 0.693%
COc1ccc(NC(=O)Cn2nnnc2-c2ccccc2F)c(C)c1 | -5.2%
COC(=O)c1ccc(NC(=O)CC2C(=O)N(c3cccc(F)c3)C(=O)N2CC(C)C)cc1 (stereo not drawn) | -2.08%
Cc1ccc(-n2nc(C(=O)N3CCCCC3)c(=O)n(C)c2=O)cc1 | 6.39%
CCCN(CCC)CCNC(=O)CS(=O)Cc1nc(-c2ccc(OC)c(OC)c2)oc1C (stereo not drawn) | -9.35%
Cc1ccc[n+](CC(=O)N2CCCc3ccccc32)c1 | active: 31.2%
